Reference: a compilation of properties of binary mixtures (doi:10.1039/c6ra15476j)
Some of these densities may be calculated back from excess volumes.

Assay: xn = mol fraction of the nth substance listed
Conditions: 100 kPa

SMILES: CCOS(=O)(=O)[O-].CC[n+]1ccn(C)c1 + CC(=O)c1ccccc1
- mass density (293.15 K, x2 = 0): 1238.2 kg/m3
- mass density (303.15 K, x2 = 0): 1231.3 kg/m3
- mass density (323.15 K, x2 = 0): 1217.7 kg/m3

SMILES: CC(=O)c1ccccc1 + CCOS(=O)(=O)[O-].CC[n+]1ccn(C)c1
- mass density (293.15 K, x1 = 0.0505): 1227.8 kg/m3
- mass density (293.15 K, x1 = 0.0997): 1219 kg/m3
- mass density (293.15 K, x1 = 0.2): 1210.1 kg/m3
- mass density (293.15 K, x1 = 0.3008): 1201.6 kg/m3
- mass density (293.15 K, x1 = 0.4002): 1188.6 kg/m3
- mass density (293.15 K, x1 = 0.5006): 1169.9 kg/m3
- mass density (293.15 K, x1 = 0.5999): 1148 kg/m3
- mass density (293.15 K, x1 = 0.6921): 1124 kg/m3
- mass density (293.15 K, x1 = 0.8999): 1062.3 kg/m3
- mass density (293.15 K, x1 = 0.9502): 1045.4 kg/m3
- mass density (293.15 K, x1 = 1): 1027.9 kg/m3
- mass density (303.15 K, x1 = 0.0505): 1219.1 kg/m3
- mass density (303.15 K, x1 = 0.0997): 1210.3 kg/m3
- mass density (303.15 K, x1 = 0.3008): 1192.7 kg/m3
- mass density (303.15 K, x1 = 0.5006): 1161.2 kg/m3
- mass density (303.15 K, x1 = 0.5999): 1139.3 kg/m3
- mass density (303.15 K, x1 = 0.6921): 1115.3 kg/m3
- mass density (303.15 K, x1 = 0.8999): 1053.6 kg/m3
- mass density (313.15 K, x1 = 0.0505): 1210.3 kg/m3
- mass density (313.15 K, x1 = 0.0997): 1201.6 kg/m3
- mass density (313.15 K, x1 = 0.2): 1192.6 kg/m3
- mass density (313.15 K, x1 = 0.3008): 1184.1 kg/m3
- mass density (313.15 K, x1 = 0.4002): 1171.1 kg/m3
- mass density (313.15 K, x1 = 0.5006): 1152.5 kg/m3
- mass density (313.15 K, x1 = 0.5999): 1130.5 kg/m3
- mass density (313.15 K, x1 = 0.7973): 1076.1 kg/m3
- mass density (323.15 K, x1 = 0.0505): 1201.6 kg/m3
- mass density (323.15 K, x1 = 0.0997): 1192.8 kg/m3
- mass density (323.15 K, x1 = 0.2): 1183.9 kg/m3
- mass density (323.15 K, x1 = 0.4002): 1162.4 kg/m3
- mass density (323.15 K, x1 = 0.5006): 1143.7 kg/m3
- mass density (323.15 K, x1 = 0.6921): 1097.8 kg/m3
- mass density (323.15 K, x1 = 0.7973): 1067.3 kg/m3
- mass density (323.15 K, x1 = 0.9502): 1019.2 kg/m3
- mass density (333.15 K, x1 = 0.2): 1175 kg/m3
- mass density (333.15 K, x1 = 0.3008): 1166.5 kg/m3
- mass density (333.15 K, x1 = 0.4002): 1153.5 kg/m3
- mass density (333.15 K, x1 = 0.5006): 1134.8 kg/m3
- mass density (333.15 K, x1 = 0.5999): 1112.9 kg/m3
- mass density (333.15 K, x1 = 0.6921): 1088.9 kg/m3
- mass density (333.15 K, x1 = 0.7973): 1058.5 kg/m3
- mass density (333.15 K, x1 = 0.8999): 1027.3 kg/m3
- mass density (333.15 K, x1 = 0.9502): 1010.3 kg/m3
- mass density (333.15 K, x1 = 1): 992.8 kg/m3

SMILES: CC(=O)c1ccccc1 + CC[n+]1ccn(C)c1.F[B-](F)(F)F
- mass density (293.15 K, x1 = 0.0416): 1261.6 kg/m3
- mass density (293.15 K, x1 = 0.094): 1240.7 kg/m3
- mass density (293.15 K, x1 = 0.195): 1211.9 kg/m3
- mass density (293.15 K, x1 = 0.4989): 1157.2 kg/m3
- mass density (293.15 K, x1 = 0.5979): 1139.8 kg/m3
- mass density (293.15 K, x1 = 0.7005): 1120 kg/m3
- mass density (293.15 K, x1 = 0.8007): 1096 kg/m3
- mass density (293.15 K, x1 = 0.8918): 1068 kg/m3
- mass density (293.15 K, x1 = 0.9498): 1047.7 kg/m3
- mass density (293.15 K, x1 = 1): 1027.9 kg/m3
- mass density (303.15 K, x1 = 0.0416): 1249.1 kg/m3
- mass density (303.15 K, x1 = 0.195): 1199.5 kg/m3
- mass density (303.15 K, x1 = 0.2999): 1177.6 kg/m3
- mass density (303.15 K, x1 = 0.4003): 1159 kg/m3
- mass density (303.15 K, x1 = 0.5979): 1127.3 kg/m3
- mass density (303.15 K, x1 = 0.7005): 1107.6 kg/m3
- mass density (303.15 K, x1 = 0.8007): 1087.3 kg/m3
- mass density (303.15 K, x1 = 0.8918): 1059.2 kg/m3
- mass density (303.15 K, x1 = 0.9498): 1039 kg/m3
- mass density (303.15 K, x1 = 1): 1019.2 kg/m3
- mass density (313.15 K, x1 = 0.0416): 1240.4 kg/m3
- mass density (313.15 K, x1 = 0.094): 1219.5 kg/m3
- mass density (313.15 K, x1 = 0.195): 1190.7 kg/m3
- mass density (313.15 K, x1 = 0.2999): 1168.9 kg/m3
- mass density (313.15 K, x1 = 0.4003): 1150.2 kg/m3
- mass density (313.15 K, x1 = 0.4989): 1136 kg/m3
- mass density (313.15 K, x1 = 0.5979): 1118.5 kg/m3
- mass density (313.15 K, x1 = 0.7005): 1098.8 kg/m3
- mass density (313.15 K, x1 = 0.8007): 1078.5 kg/m3
- mass density (313.15 K, x1 = 1): 1010.4 kg/m3
- mass density (323.15 K, x1 = 0.0416): 1231.6 kg/m3
- mass density (323.15 K, x1 = 0.195): 1182 kg/m3
- mass density (323.15 K, x1 = 0.2999): 1160.1 kg/m3
- mass density (323.15 K, x1 = 0.5979): 1109.8 kg/m3
- mass density (323.15 K, x1 = 0.7005): 1090.1 kg/m3
- mass density (323.15 K, x1 = 0.8007): 1069.8 kg/m3
- mass density (323.15 K, x1 = 0.8918): 1041.7 kg/m3
- mass density (323.15 K, x1 = 0.9498): 1021.5 kg/m3
- mass density (323.15 K, x1 = 1): 1001.7 kg/m3
- mass density (333.15 K, x1 = 0.195): 1170.5 kg/m3
- mass density (333.15 K, x1 = 0.2999): 1151.2 kg/m3
- mass density (333.15 K, x1 = 0.4989): 1118.4 kg/m3
- mass density (333.15 K, x1 = 0.5979): 1100.9 kg/m3
- mass density (333.15 K, x1 = 0.7005): 1081.2 kg/m3
- mass density (333.15 K, x1 = 0.8007): 1060.9 kg/m3

SMILES: CC[n+]1ccn(C)c1.F[B-](F)(F)F + CC(=O)c1ccccc1
- mass density (303.15 K, x2 = 0): 1275 kg/m3
- mass density (313.15 K, x2 = 0): 1267.4 kg/m3
- mass density (323.15 K, x2 = 0): 1260 kg/m3
- mass density (333.15 K, x2 = 0): 1252.5 kg/m3

SMILES: CC(=O)c1ccccc1 + CCCC[n+]1ccn(C)c1.F[P-](F)(F)(F)(F)F
- mass density (293.15 K, x1 = 0.0504): 1345.8 kg/m3
- mass density (293.15 K, x1 = 0.0913): 1329 kg/m3
- mass density (293.15 K, x1 = 0.1983): 1289.8 kg/m3
- mass density (293.15 K, x1 = 0.2999): 1256.9 kg/m3
- mass density (293.15 K, x1 = 0.3908): 1230.1 kg/m3
- mass density (293.15 K, x1 = 0.4973): 1199.7 kg/m3
- mass density (293.15 K, x1 = 0.697): 1150 kg/m3
- mass density (293.15 K, x1 = 0.7999): 1119.9 kg/m3
- mass density (293.15 K, x1 = 0.9002): 1080.6 kg/m3
- mass density (293.15 K, x1 = 0.95): 1055 kg/m3
- mass density (293.15 K, x1 = 1): 1027.9 kg/m3
- mass density (303.15 K, x1 = 0.0504): 1337.1 kg/m3
- mass density (303.15 K, x1 = 0.0913): 1320.3 kg/m3
- mass density (303.15 K, x1 = 0.1983): 1281.1 kg/m3
- mass density (303.15 K, x1 = 0.3908): 1221.4 kg/m3
- mass density (303.15 K, x1 = 0.4973): 1191 kg/m3
- mass density (303.15 K, x1 = 0.5999): 1166.2 kg/m3
- mass density (303.15 K, x1 = 0.697): 1141.3 kg/m3
- mass density (303.15 K, x1 = 0.7999): 1111.2 kg/m3
- mass density (303.15 K, x1 = 0.9002): 1071.9 kg/m3
- mass density (303.15 K, x1 = 0.95): 1046.2 kg/m3
- mass density (303.15 K, x1 = 1): 1019.2 kg/m3
- mass density (313.15 K, x1 = 0.0504): 1328.3 kg/m3
- mass density (313.15 K, x1 = 0.0913): 1311.5 kg/m3
- mass density (313.15 K, x1 = 0.1983): 1272.4 kg/m3
- mass density (313.15 K, x1 = 0.2999): 1239.5 kg/m3
- mass density (313.15 K, x1 = 0.3908): 1212.7 kg/m3
- mass density (313.15 K, x1 = 0.697): 1132.6 kg/m3
- mass density (313.15 K, x1 = 0.7999): 1102.4 kg/m3
- mass density (313.15 K, x1 = 0.9002): 1063.2 kg/m3
- mass density (313.15 K, x1 = 0.95): 1037.5 kg/m3
- mass density (313.15 K, x1 = 1): 1010.4 kg/m3
- mass density (323.15 K, x1 = 0.0504): 1319.6 kg/m3
- mass density (323.15 K, x1 = 0.1983): 1263.6 kg/m3
- mass density (323.15 K, x1 = 0.2999): 1230.7 kg/m3
- mass density (323.15 K, x1 = 0.4973): 1173.5 kg/m3
- mass density (323.15 K, x1 = 0.5999): 1148.7 kg/m3
- mass density (323.15 K, x1 = 0.9002): 1054.4 kg/m3
- mass density (323.15 K, x1 = 1): 1001.7 kg/m3
- mass density (333.15 K, x1 = 0.0504): 1310.7 kg/m3
- mass density (333.15 K, x1 = 0.1983): 1254.8 kg/m3
- mass density (333.15 K, x1 = 0.3908): 1195 kg/m3
- mass density (333.15 K, x1 = 0.4973): 1164.6 kg/m3
- mass density (333.15 K, x1 = 0.5999): 1139.8 kg/m3
- mass density (333.15 K, x1 = 0.697): 1114.9 kg/m3
- mass density (333.15 K, x1 = 0.7999): 1084.8 kg/m3
- mass density (333.15 K, x1 = 0.95): 1019.9 kg/m3

SMILES: CCCC[n+]1ccn(C)c1.F[P-](F)(F)(F)(F)F + CC(=O)c1ccccc1
- mass density (293.15 K, x2 = 0): 1371.2 kg/m3
- mass density (303.15 K, x2 = 0): 1362.8 kg/m3
- mass density (323.15 K, x2 = 0): 1346 kg/m3
- mass density (333.15 K, x2 = 0): 1337.8 kg/m3
